# Measurements reported in PubChem BioAssay AID624418 (National Center for Advancing Translational Sciences (NCATS), 2012).
# The whole screen tested about 410,000 compounds, of which about 530 (0.13%) were called active. The shares of active, inactive and inconclusive entries below differ from those in the screen. Calls come from the whole dose curve; as a rule, active = well fitted inhibition curve with a large enough effect; inconclusive = small, poorly fitted or top-dose-only effect, or another doubt; inactive = no such curve, though single readings can be large or run the other way. Potencies of inconclusive entries are doubtful fits and often do not repeat.
# Assay: qHTS of GLP-1 Receptor Inverse Agonists: Cytotox Screen
# Details: HEK293 cAMP-luciferase reporter cells, luminescence, 24 h; activity change, negative = inhibition: at 38.3 µM (top of the series) unless noted
# In short: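 Luminescence readout: signal drop marks cytotoxicity. Plated cells grew 12 h at 37 °C, 5% CO2, received 23 nL compound for 24 h, then got luciferase reagent, read after 12 min at RT.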
# % is set by controls: 0 for no effect and ±100 for the full control effect; potency is the fitted concentration of half-maximal effect.
SMILES,Potency,"activity change, negative = inhibition"
O=C(NC1CCCCC1)C1CCN(S(=O)(=O)c2cccc3cccnc23)CC1,"inconclusive: 5.62 µM [inhibitor, partial curve, poor fit]",
COc1ccc(C(=O)CC(Nc2ccc([N+](=O)[O-])cc2)c2ccc(Cl)cc2)cc1 (stereo not given),"inconclusive: 12.6 µM [inhibitor, single point]",
Oc1ccc(N=Nc2n[nH]c(-c3ccccc3)n2)cc1,"inconclusive: 12.6 µM [inhibitor, single point]",
Cc1nc2c(-c3ccccc3)c(C)nn2c(C)c1CCC(=O)NCc1ccco1,,inactive: 26.2%
COc1ccc(N2CC(O)(c3ccc(OC(F)F)cc3)[N+]3=C2CCCC3)cc1 (stereo not given),,inactive: 7.2% [at 7.66 µM]
O=C(C1CCN(c2nc3ccccc3[nH]2)CC1)N1CCN(c2cccc(Cl)c2)CC1,,inactive: -25%
COc1cccc(CNCCSc2nnnn2C)c1OCc1ccc(Cl)cc1,"inconclusive: 28.2 µM [inhibitor, single point]",
Cc1ccccc1NC(=S)NN1CCN(C)CC1,,inactive: -9.45%
Cc1cc(N/N=C/c2cccc(Cl)c2)nc(NCc2ccccc2)n1,"inconclusive: 28.2 µM [inhibitor, single point]",
CCOC(=O)c1ccc2c(c1)N(CC(=O)Nc1ccc(CC)cc1)C(=O)c1ccccc1S2,,inactive: 0.117%
CCN(Cc1ccccc1)c1ccc(N=Nc2nn(C)c(C)c2[N+](=O)[O-])cc1,"inconclusive: 11.2 µM [inhibitor, partial curve, poor fit]",
COc1ccc(NC(=O)C2(c3ccc(NC(=O)c4ccc(OC)cc4)cc3)CCCC2)cc1,,inactive: 2.86%
N#CCCN1CCN(CCC#N)c2ccccc21,"inconclusive: 22.4 µM [inhibitor, single point]",
COc1ccc(CCNC(C(=O)Nc2cc(C)cc(C)c2)c2ccccc2)cc1 (stereo not given),"inconclusive: 28.2 µM [inhibitor, single point]",
CC(=O)NC(c1cccc(F)c1)c1nc(-c2cc3ccccc3o2)cs1 (stereo not given),,inactive: -29.9%
CC1(C(=O)NCC2CC2)CCN1C(=O)C1(c2ccc(Cl)cc2)CC1 (stereo not given),,inactive: -13.4%
CC1=NN(C(=O)c2ccc(C)cc2)C(O)(C(F)(F)OC(F)(F)F)C1 (stereo not given),"inconclusive: 4.47 µM [inhibitor, full curve]",
Cc1ccc(C2=N/C(=C\c3c(C)nn(-c4ccccc4)c3N3CCCC3)C(=O)O2)cc1,,inactive: 2.86%
COc1ccc(/C(C)=N/NC(=O)c2ccc(CSc3nncn3C)cc2)cc1,"inconclusive: 28.2 µM [inhibitor, single point]",
COc1ccc(CCNC(=O)CCCn2c(=O)c3cccn3c3ccc(F)cc32)cc1OC,,inactive: 6.45%
COc1cccc(N2CCN(C(=O)CCCCCNc3nc(=S)[nH]c4ccccc34)CC2)c1,"inconclusive: 11.2 µM [inhibitor, single point]",
CCOc1ccc(NC(=S)NNC(=S)Nc2cccc(C(F)(F)F)c2)cc1,,inactive: -23%
O=[N+]([O-])c1ccc(Cl)c(NC(=S)N2CCCC2)c1,,inactive: -4.74%

SMILES,Potency,"activity change, negative = inhibition"
O=c1oc(CCCO)cc2ccc(/C=C/c3cccc([N+](=O)[O-])c3)cc12,"inconclusive: 2.24 µM [inhibitor, full curve, poor fit]",
CCCCN=C1NN=C(c2cc3ccccc3o2)CS1,"inconclusive: 11.2 µM [inhibitor, single point]",
O=C(NC(=S)Nc1ccccc1Br)C1CCCCC1,"inconclusive: 28.2 µM [inhibitor, single point]",
COc1ccc(NC(=S)NC(NC(=O)c2cccc3ccccc23)C(Cl)(Cl)Cl)c([N+](=O)[O-])c1 (stereo not given),"inconclusive: 28.2 µM [inhibitor, single point]",
O=C(CCS(=O)(=O)c1nc(-c2cccs2)cc(C(F)(F)F)n1)Nc1cccc(O)c1,"inconclusive: 11.2 µM [inhibitor, partial curve, poor fit]",
CCOc1ccc(-c2csc(/C(C#N)=C\c3ccc(O)c([N+](=O)[O-])c3)n2)cc1,"inconclusive: 12.6 µM [inhibitor, single point]",
Cc1ccccc1NC1=C/C(=N\S(=O)(=O)c2cccs2)c2ccccc2C1=O,"inconclusive: 22.4 µM [inhibitor, partial curve, poor fit]",
O=C(N/C(=C\c1ccccc1)C(=O)N1CCOCC1)c1ccco1,,inactive: -2.73%
Cc1ccc(NC(=S)NC2CCCC2)c(C)c1,"inconclusive: 28.2 µM [inhibitor, single point]",
Cc1ccc(N2C(=O)C(CC(=O)Nc3ccccc3)N(CCC3=CCCCC3)C2=O)cc1 (stereo not given),,inactive: -4.69%
CCn1cc(CN2CCC(C(=O)Nc3cccc(-c4cccc(OC)c4)c3)CC2)c(C)n1,,inactive: 2.33%
CCOc1ccccc1N(CC(=O)NC1CCCCC1)C(=O)c1nsc(Cl)c1Cl,,inactive: 2.49%
CCS(=O)(=O)c1ccc(N=Nc2ccc(O)c3ncccc23)c(OC)c1,"inconclusive: 11.2 µM [inhibitor, partial curve, poor fit]",
CC(/C=C1\SC(=S)N(CCCC(=O)Nc2ccc(C(=O)O)cc2)C1=O)=C\c1ccccc1,"inconclusive: 25.1 µM [inhibitor, single point]",
CCc1cccc(CC)c1NC(=O)CSc1nc2ccc(N3C(=O)C4C5C=CC(C5)C4C3=O)cc2s1 (stereo not given),,inactive: -14.2%
CC(Nc1nc(N2CCNCC2)nc2ccccc12)c1ccccc1 (stereo not given),"inconclusive: 12.6 µM [inhibitor, single point]",
Clc1ccc(-c2cnc3n2CCCCC3)cc1,"inconclusive: 11.2 µM [inhibitor, single point]",
O=C(O)C1=CC(c2ccc(Br)cc2)n2ncnc2N1 (stereo not given),,inactive: -4.36%
C/C(=N/Nc1nc(C)c(C)s1)c1cccc([N+](=O)[O-])c1,"inconclusive: 10 µM [inhibitor, partial curve]",
CNc1cc(C)nc(-n2nc(C)cc2C)n1,"inconclusive: 7.94 µM [inhibitor, partial curve, poor fit]",
CCc1ccc(CNC(=O)C2CCN(c3nnc(-n4c(C)ccc4C)s3)CC2)cc1,,inactive: 1.35%
Cc1ccc(-c2nc3ccccc3[nH]2)cc1NC(=O)c1ccc2c(c1)OCO2,"inconclusive: 20 µM [inhibitor, single point]",
